{"source": "paper PMC12646233", "about": "(Proceedings of the National Academy of Sciences of the …, 2025)", "target": "the molecule itself", "test": "SEC + native gel or EMSA; Superdex 200 Increase 10/300 GL fractionation of purified liver polymers; fractions assessed by nondenaturing PAGE", "note": "Several values for one entry are separate records, joined by “and”; a condition that tells them apart may be missing. Equal entries are not always repeated."}
{"protein": "Z α1-antitrypsin (Glu342Lys) polymers isolated from human explant liver tissue (natural protein, glycosylation site at Asn83, alpha-1-antitrypsin, human, Z variant (Glu342Lys, rs28929474), as polymer chains of heterogeneous length; Polymers of varying length; also called ZZ; Z α1-antitrypsin liver polymers; source: purified from explant liver tissue of a PiZZ individual (inclusion bodies, sonication, copper IMAC, anion exchange, SEC)) not shown", "values": [{"measurement": "stoichiometry N", "result": "3 subunits to 6 subunits (2×) and 2 and 3"}]}
